The supplement of paper PMC3334620
Whole data set: some 33,000 sequences, median “E-score (-0.5 to 0.5)” near -0.016, cut for the highest 2% near 0.31. This is one part of the list.

target: Cst6 (UniProt P40535); assay: PBM E-score (8-mer binding enrichment) (E-score (-0.5 to 0.5)); higher = stronger / more preferred TF binding; most listed sequences are background and not binding sites; conditions: protein concentration: 200 nM; construct: GST-DNA-binding domain
In short: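 Yeast transcription factors carrying a GST tag, as full-length proteins or DNA-binding domains, were produced by PURExpress in vitro transcription/translation. About 100-200 nM protein was applied to universal all-10-mer Agilent arrays, double-stranded by primer extension on fresh or once-stripped slides. Bound protein was detected with fluorescent anti-GST, and scans were normalised with masliner. The Universal PBM Analysis Suite gave each ungapped eight-base word, pooled with its reverse complement, an E-score, a modified Wilcoxon-Mann-Whitney statistic.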

| Sequence | PBM E-score |
| --- | --- |
| AAGTAAAA | 0.148 |
| CCGTACCC | 0.042 |
| CGCCGCCA | -0.08 |
| AAAACCTA | 0.117 |
| GTTTAATA | 0.202 |
| AAGCCGAA | -0.0104 |
| ACTGACTA | -0.0891 |
| ACCTCTAT | -0.104 |
| ATGATACC | 0.167 |
| AACGCTGC | -0.106 |
| CAAATGTG | 0.156 |
| AGGGAGAT | -0.302 |
| AAGTGAAC | -0.0953 |
| GTGCTCCA | -0.0727 |
| ACAAAAGC | 0.115 |
| GCACACAA | -0.0149 |
| AAGTGTCA | 0.0337 |
| GCTCGTAA | 0.0158 |
| GCCACTAA | -0.0864 |
| ACTCGGCA | -0.0585 |
| AGCCGCCA | -0.338 |
| TCACGGAA | 0.139 |

| Sequence | PBM E-score |
| --- | --- |
| AAGCATCC | -0.171 |
| CGGGCTCA | -0.251 |
| CTATTAAG | -0.0873 |
| CGGAGACC | -0.147 |
| CTGACAGA | 0.0412 |
| TATCAATA | 0.113 |
| AACCACAC | 0.0763 |
| ATTGGAAA | 0.0732 |
| AGTAAAAT | 0.195 |
| GCCTAACA | 0.0301 |
| GTACCTTA | -0.0192 |
| CAATGCAA | 0.0969 |
| ACTGTGCT | -0.0588 |
| ACCCGAGA | -0.142 |
| AGACCCGG | -0.161 |
| CGGTGAGA | 0.0931 |
| CAATACAC | 0.0965 |
| GGGCCTAC | -0.293 |
| CACTGGCG | -0.00517 |
| ATGTCCCG | -0.207 |
| GCACCACC | -0.201 |
| CCTACAAA | 0.0648 |

| Sequence | PBM E-score |
| --- | --- |
| GCCGTAGC | 0.159 |
| CGTCAGAG | 0.365 |
| GTGTTACA | 0.0865 |
| GACGACAA | 0.256 |
| AAACGCTA | -0.161 |
| AGGCGATA | -0.157 |
| TGACTGCA | 0.0188 |
| CTGGAGAC | -0.159 |
| AAAGGACG | -0.146 |
| AAAAATTG | 0.2 |
| TGGCATAA | 0.265 |
| CGACATAG | -0.0819 |
| CGTACGCA | 0.118 |
| TCCTGCAA | -0.028 |
| GGGGCGAC | -0.156 |
| AACCATTC | -0.0155 |
| CAATGCCA | -0.0721 |
| CGTTCTTA | 0.0793 |
| ACATCGCC | 0.0342 |
| CGCCATAC | 0.0881 |
| AGTTTTAT | 0.181 |
| CCGAAGTA | -0.0348 |

| Sequence | PBM E-score |
| --- | --- |
| TAGAAGAA | -0.097 |
| AATCAACT | 0.161 |
| CAAATAAC | 0.37 |
| CCCACTAG | -0.341 |
| GTGAGCTA | 0.0541 |
| CACATCGC | -0.0321 |
| AAAACGTC | 0.278 |
| AAAGCCAC | 0.0352 |
| AGGCCCGC | -0.0131 |
| GTCAAAAC | 0.214 |
| GATAGTAA | 0.14 |
| TATGTACA | 0.119 |
| CAAGACCG | -0.195 |
| ACTGCCTC | -0.0372 |
| CATGAGAC | -0.01 |
| CTCTGAAG | -0.217 |
| ATCATCCA | 0.0994 |
| TGGCCTAA | -0.0862 |
| AACCGTCT | -0.18 |
| TGCATCAA | 0.154 |
